# Experimental data as given in PubChem BioAssay AID588855 (National Center for Advancing Translational Sciences (NCATS), 2011).
# Hit rate of the full screen: of about 410,000 compounds, about 5,000 (1.2%) were called active. The inconclusive results got no clear call from the source; some entries with a clear call stand among them for comparison. The call rests on the fitted dose curve; in most records, active means well fitted inhibition curve with a large enough effect; inconclusive means small, poorly fitted or top-dose-only effect; inactive means no such curve, though single readings can be large or run the other way. Potencies of inconclusive entries are doubtful fits and often do not repeat.
# Assay: qHTS for Inhibitors of TGF-b; further: nearly all actives have a fitted effect of over 65% in size
# Settings: HepG2 CAGA-GFP TGF-b/SMAD3 reporter, GFP fluorescence, 18 h, TGF-beta stimulated, 500 pg/mL final; series mostly up to 46.1 µM; activity, negative = inhibition: at the top concentration
# Summary of the method: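 First, reporter cells (HEPG2 CAGA-GFP) rested 2 h at 37 degrees C. Next, compounds were pinned in and TGF-beta added to 500 pg/mL final. After 18 h, GFP was imaged per cell and summed per well.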
# On the % scale 0 is the no-effect control and ±100 the full control effect; potency means the concentration at half of the fitted maximal effect; tags describe the fitted curve by direction and shape.
SMILES,Potency,"activity, negative = inhibition"
CCN(CC)S(=O)(=O)c1cc(NC(=O)c2ccc3c(c2)NC(=O)C(C)S3)ccc1C (centres undefined),"inconclusive: 11.2 µM [inhibitor, partial curve]",
O=C(Cn1ncn2c(cc3sccc32)c1=O)NC1CCCC1,,inactive: 1.1%
COc1ccc(-n2ncc3c2CC(C)(C)CC3NC(=O)c2ocnc2C)cc1 (centres undefined),,inactive: -3.34%
COc1ccc(N=Nc2ccc(O)c3ncccc23)cc1,"inconclusive: 6.31 µM [inhibitor, full curve, poor fit]",
O=C(NC1CCCC1)C(c1ccncc1)N(Cc1ccco1)C(=O)c1ccc(-c2ccccc2)[nH]1 (centres undefined),"inconclusive: 35.5 µM [inhibitor, single point]",
CCc1ccc2oc(-c3cc(NC(=O)c4cc([N+](=O)[O-])ccc4N4CCOCC4)ccc3Cl)nc2c1,"inconclusive: 11.2 µM [inhibitor, single point]",
COc1ccc(CNCCC(c2ccc(OC(C)C)cc2)c2ccccc2OC)cc1OC (centres undefined),"inconclusive: 35.5 µM [inhibitor, single point]",
Cc1cc(C(=O)NCc2csc(-c3ccccc3)n2)no1,"inconclusive: 6.31 µM [inhibitor, single point]",
Cc1ccc(Cl)cc1N1CCN(C(=O)CN2C(=O)CSc3c2c(C)nn3-c2ccccc2)CC1,"inconclusive: 0.112 µM [inhibitor, full curve, poor fit]",
C[C@H](CO)N1C[C@H](C)[C@@H](CN(C)S(=O)(=O)c2ccccc2)Oc2c(cccc2N(C)C)C1=O,"inconclusive: 0.355 µM [inhibitor, full curve, poor fit]",
O=C(NCc1cccs1)c1ccc(Cn2c(SCc3ccc(F)cc3)nc3cccnc32)cc1,"inconclusive: 14.1 µM [inhibitor, partial curve, poor fit]",
CCOC(=O)c1sc2nc[nH]c(=O)c2c1C,"inconclusive: 35.5 µM [inhibitor, single point]",
CCOCCCN(Cc1ccco1)C(=O)c1cc2c(=O)[nH]c3ccc(C)cc3c2s1,"inconclusive: 35.5 µM [inhibitor, single point]",
CC(C)Cc1nnc(NC(=O)CCC(=O)N2CCN(c3ccc([N+](=O)[O-])cc3)CC2)s1,"inconclusive: 35.5 µM [inhibitor, single point]",
CCC(C)c1ccc(NC(=S)Nc2ccc(OC)cc2)cc1 (centres undefined),"inconclusive: 15.8 µM [inhibitor, single point]",
CS(=O)(=O)NCCCNc1ccc(C(F)(F)F)cc1[N+](=O)[O-],,inactive: -5.71%
COCCNC(=O)Cn1c(=O)n(CCCCCC(=O)Nc2ccccc2)c(=O)c2sccc21,"inconclusive: 6.31 µM [inhibitor, full curve, poor fit]",
CC1CCc2cc(F)ccc2N1C(=O)CSc1nnc2c(n1)[nH]c1ccccc12 (centres undefined),"inconclusive: 17.8 µM [inhibitor, partial curve, poor fit]",
CC(C)(C)Cc1c(-c2ccc(Cl)cc2)nc2ccc(Cl)cn12,"inconclusive: 35.5 µM [inhibitor, single point]",
Cn1nc(C(=O)N2CCOCC2)c2ccccc2c1=O,"inconclusive: 35.5 µM [inhibitor, partial curve, poor fit]",
COc1ccc(Cn2nnnc2C(c2cccs2)N2CCN(c3ccc([N+](=O)[O-])cc3)CC2)cc1 (centres undefined),"inconclusive: 14.1 µM [inhibitor, partial curve, poor fit]",
Cc1c(NC(=O)CN2C(=O)c3ccccc3S2(=O)=O)c(=O)n(-c2ccccc2)n1C,,inactive: 0%

SMILES,Potency,"activity, negative = inhibition"
O=c1nc(-c2ccccc2)c2cc(SC(F)F)ccc2[nH]1,,inactive: 18%
CCC(=O)N1c2ccc(S(=O)(=O)CCC(=O)Nc3ccc(Br)c(C)c3)cc2CC1C (centres undefined),"inconclusive: 12.6 µM [inhibitor, partial curve, poor fit]",
C=CCOc1ccc(CN(C)C(=O)c2ccc(CNS(=O)(=O)c3ccc(C)c(C)c3)cc2)cc1,"inconclusive: 10 µM [inhibitor, partial curve, poor fit]",
Cc1cc(O)c(NC(=O)c2cc([N+](=O)[O-])ccc2Cl)cc1C,,inactive: -17%
COc1cccc(C2=NC(C)(C)NC(c3ccccc3O)C2)c1 (centres undefined),"inconclusive: 28.2 µM [inhibitor, single point]",
CCOc1ccc(CNS(=O)(=O)c2ccc(-c3coc(C)n3)cc2)cc1OC,,inactive: -10.4%
CCOC(=O)N1CCN(C(=O)c2oc3ccc(S(=O)(=O)N4CC(C)CC(C)C4)cc3c2C)CC1 (centres undefined),"inconclusive: 7.08 µM [inhibitor, full curve, poor fit]",
CNc1ccc(C=C2C=Cc3ccccc32)cc1,"inconclusive: 0.112 µM [inhibitor, full curve, poor fit]",
CCCCN(C)CCCNC(=O)Cn1ncc2c3ccccc3n(Cc3cc(C)ccc3C)c2c1=O,"inconclusive: 7.08 µM [inhibitor, full curve, poor fit]",
COc1ccc(CCN2C(=O)c3[nH]nc(-c4ccccc4O)c3C2c2ccccc2)cc1OC (centres undefined),"inconclusive: 35.5 µM [inhibitor, single point]",
O=[N+]([O-])c1ccc2cn(C3OC(CO)C(O)C3O)nc2c1 (centres undefined),"inconclusive: 35.5 µM [inhibitor, single point]",
CCCCOC(=O)C1CCC[C@@H](C)N1 (some centres undefined),"inconclusive: 2.82 µM [inhibitor, single point]",
CN(c1ccc(OCC(=O)OCC(=O)Nc2ccc(OC(F)F)cc2)cc1)S(=O)(=O)c1cccs1,,inactive: 1.14%
CC(=O)NCCc1ccc(S(=O)(=O)Nc2ccc(C)c(S(=O)(=O)N3CCOCC3)c2)cc1,"inconclusive: 6.31 µM [inhibitor, single point]",
COc1ccccc1NC(=O)COn1nnc2ccc(S(=O)(=O)N3CCOCC3)cc21,"inconclusive: 22.4 µM [inhibitor, single point]",
COc1ccc(C2N(c3cc(Cl)ccc3OC)C(=O)C3CCCN32)cc1 (centres undefined),"inconclusive: 0.1 µM [inhibitor, full curve, poor fit]",
CCOC(=O)C1CCCN(C(=O)c2nn(-c3ccc(C)cc3)c(=O)c3c2c2ccccc2n3C)C1 (centres undefined),,inactive: 20.2%
C=CCNC(=O)/C(C#N)=C/c1ccc(OS(=O)(=O)c2ccc(C)cc2)c(OC)c1,"inconclusive: 35.5 µM [inhibitor, single point]",
O=C(/C=C\c1ccccc1)NC1CC(=O)N(c2ccccc2)C1 (centres undefined),,inactive: 1.1%
COc1ccc(S(=O)(=O)N(CC(C)C)CC(C)C)c2cccnc12,,inactive: -14.6%
Fc1ccc(CCNC(=S)Nc2ccc(F)c(Cl)c2)cc1,"inconclusive: 20 µM [inhibitor, single point]",
CCc1ccccc1NC(=O)c1cc(-c2cccs2)on1,"inconclusive: 10 µM [inhibitor, partial curve, poor fit]",

SMILES,Potency,"activity, negative = inhibition"
CCCc1nc2ccc(C(=O)OC)cn2c1Cc1ccccc1C(F)(F)F,"inconclusive: 35.5 µM [inhibitor, single point]",
CC1(C)c2ccccc2-c2nc3ccccc3cc2C1O (centres undefined),,inactive: 0.17%
CCN(CC)S(=O)(=O)c1ccc2oc(C(=O)NCc3ccccc3OC)c(C)c2c1,"inconclusive: 22.4 µM [inhibitor, single point]",
O=C(CCSc1nnc2scc(-c3ccccc3)n12)NCc1ccc2c(c1)OCO2,"inconclusive: 6.31 µM [inhibitor, single point]",
COc1ccc(NC(=S)Nc2nc(CC(=O)Nc3ccccc3OC)cs2)cc1,"inconclusive: 35.5 µM [inhibitor, single point]",
Cc1ccc(S(=O)(=O)NCC2CCC(C(=O)NCCc3ccc(Cl)cc3)CC2)cc1 (centres undefined),,inactive: -14.3%
Cc1ccc(C)c(N2CCN(C(=O)c3cc(S(=O)(=O)N4CCCCCC4)cn3C)CC2)c1,"inconclusive: 15.8 µM [inhibitor, single point]",
CC1CCN(c2c(NCc3ccc(C(=O)N4CCN(C5CCCCC5)CC4)cc3)c(=O)c2=O)CC1,"inconclusive: 7.94 µM [inhibitor, partial curve, poor fit]",
NC(=O)CC1NC(=O)c2cc([N+](=O)[O-])cc(I)c2OCCC(C(N)=O)NC(=O)[C@@H]2CCCN2C1=O (some centres undefined),,inactive: 6.62%
Cc1ccn2c(=O)c(NC(=O)c3ccc(Br)o3)c(C)nc2c1,,inactive: 12.3%
CCc1cccc(C)c1Nc1c(-c2cccc(O)c2)nc2nc(C)cc(C)n12,"inconclusive: 35.5 µM [inhibitor, single point]",
CCCN1C(=O)/C(=C/c2nc3ccccc3c(=O)[nH]2)c2cc(C)ccc21,,inactive: -19.5%
CCc1ccccc1NC(=O)CSc1ncc(S(=O)(=O)c2ccc(C(C)C)cc2)c(N)n1,"inconclusive: 17.8 µM [inhibitor, single point]",
CCc1cccc2c(C(=O)C(NC(C)CC)c3ccccc3)c[nH]c12 (centres undefined),"inconclusive: 25.1 µM [inhibitor, single point]",
Cc1cc(C=O)c(O)cc1O,,inactive: 17%
COc1ccc(C(=O)c2ccccc2Cl)cc1OC,,inactive: -2.93%
Cc1cc(C(=O)NNc2ccc(C(C)C)cc2)n(C(C)(C)C)n1,"inconclusive: 35.5 µM [inhibitor, single point]",
CC1=C(C(=O)Nc2ccc(Cl)cc2)C(c2ccc(C(F)(F)F)cc2)n2nnnc2N1 (centres undefined),"inconclusive: 28.2 µM [inhibitor, single point]",
CCN(CC(=O)Nc1ccccc1C(F)(F)F)C(=O)c1ccc(N2C(=O)CCC2=O)cc1,"inconclusive: 5.62 µM [inhibitor, partial curve, poor fit]",
COc1cc(-c2nnc(-c3ccccc3)o2)cc(OC)c1OC,,inactive: 7.37%
